{"source": "PubChem BioAssay AID624417", "about": "(National Center for Advancing Translational Sciences (NCATS), 2012)", "note": "Where “and” joins values, the source holds several entries; their conditions need not be identical. Equal entries are not always repeated. Screen size: about 410,000 compounds; about 6,400 (1.6%) were called active. This list was built around the results that the source calls inconclusive (neither active nor inactive); the mix of calls is not that of the screen. The call rests on the fitted dose curve; in most records, active means well fitted inhibition curve with a large enough effect; inconclusive means small, poorly fitted or top-dose-only effect; inactive means no such curve, though single readings can be large or run the other way. A potency beside an inconclusive call is a rough fit, not a confirmed value. Potency means the concentration at half of the fitted maximal effect; tags describe the fitted curve by direction and shape."}
{"molecular_target": "Glucagon-like peptide 1 receptor (Homo sapiens) (UniProt P43220)", "sequence (P43220 whole entry, looked up)": "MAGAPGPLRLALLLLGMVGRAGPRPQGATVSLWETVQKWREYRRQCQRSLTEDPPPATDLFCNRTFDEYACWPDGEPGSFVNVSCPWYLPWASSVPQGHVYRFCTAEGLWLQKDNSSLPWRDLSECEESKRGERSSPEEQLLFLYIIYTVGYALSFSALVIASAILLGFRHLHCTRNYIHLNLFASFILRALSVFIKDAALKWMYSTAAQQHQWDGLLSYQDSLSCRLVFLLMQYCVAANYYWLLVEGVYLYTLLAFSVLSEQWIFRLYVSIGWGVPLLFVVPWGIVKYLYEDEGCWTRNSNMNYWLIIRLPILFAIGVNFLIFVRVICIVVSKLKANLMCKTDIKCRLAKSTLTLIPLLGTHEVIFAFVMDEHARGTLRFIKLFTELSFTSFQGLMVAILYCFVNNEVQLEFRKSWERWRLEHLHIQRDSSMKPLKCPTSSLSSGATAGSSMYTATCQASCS", "experiment": "qHTS of GLP-1 Receptor Inverse Agonists (Inhibition Mode); further: nearly all actives have a fitted effect of over 55% in size", "conditions": "HEK293 GLP-1R CRE-luciferase, luminescence, 24 h, GLP-1R form is constitutively active; series mostly up to 38.3 µM", "how_it_was_run": "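HEK293 cells stably co-expressing a cAMP-responsive luciferase reporter and constitutively active GLP-1R were seeded, incubated 12 h, then exposed to compounds for 24 h at 37 C. Luminescence was read 12 min after detection reagent; inverse agonists lower signal.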"}
{"smiles": "C=CCc1cc(C)ccc1OCCOCCC(C(=O)OCC)C(=O)OCC", "Potency": "inconclusive: 28.2 µM [inhibitor, single point]"}
{"smiles": "Cc1ccc(NC(=O)CSc2nc(C)c(C)c(C)n2)cc1S(=O)(=O)N1CCOCC1", "Potency": "inactive"}
{"smiles": "CC1(C)CC(=O)CC2(C1)NCC(c1ccccc1Cl)c1c2[nH]c2ccccc12", "note": "(configuration not stated)", "Potency": "inconclusive: 31.6 µM [inhibitor, partial curve, poor fit]"}
{"smiles": "Cc1nn(C)c(C)c1NC(=O)c1cc2nc(-c3ccco3)cc(C(F)(F)F)n2n1", "Potency": "inactive"}
{"smiles": "CN(C(=O)/C=C/c1ccc(F)cc1)C1CCCCC1", "Potency": "inconclusive: 11.2 µM [inhibitor, single point]"}
{"smiles": "Cc1ccc(C(C)C)c(OCC(=O)OCC(=O)NC2CC2)c1", "Potency": "inconclusive: 28.2 µM [inhibitor, single point]"}
{"smiles": "CC(C)N(Cc1nc(-c2ccc(Cl)cc2)no1)C(=O)c1cccs1", "Potency": "inconclusive: 28.2 µM [inhibitor, single point]"}
{"smiles": "O=C(NCc1ccc(Cl)c(Cl)c1)c1ccco1", "Potency": "inconclusive: 28.2 µM [inhibitor, single point]"}
{"smiles": "Clc1ccccc1/C=N/c1cc(-c2ccccc2)nn1-c1ccccc1", "Potency": "inconclusive: 28.2 µM [inhibitor, single point]"}
{"smiles": "Cc1c(Cc2ccccc2)c(=O)oc2cc(O)cc(O)c12", "Potency": "inconclusive: 5.01 µM [inhibitor, full curve]"}
{"smiles": "CCN1CCN(S(=O)(=O)c2ccc(Cl)c(C(=O)Nc3cc(Cl)ccc3N3CCOCC3)c2)CC1", "Potency": "inconclusive: 12.6 µM [inhibitor, partial curve, poor fit]"}
{"smiles": "O=C(NCc1cccc(C(F)(F)F)c1)c1cc(Cl)cc(Cl)c1", "Potency": "inactive"}
{"smiles": "CC(=O)c1ccc(NC(=O)C2(c3ccccc3)CC2(Cl)Cl)cc1", "note": "(configuration not stated)", "Potency": "inconclusive: 11.2 µM [inhibitor, partial curve, poor fit]"}
{"smiles": "COc1cc(C(=O)Nc2c(C(=O)O)[nH]c3ccc(C)cc23)cc(OC)c1OC", "Potency": "inconclusive: 1 µM [inhibitor, full curve]"}
{"smiles": "COc1ccc(C2CC3(CC(C)(C)NC(SC)=N3)Oc3cc(O)cc(C)c32)cc1", "note": "(configuration not stated)", "Potency": "inconclusive: 12.6 µM [inhibitor, partial curve, poor fit]"}
{"smiles": "O=C(c1ccc(S(=O)(=O)Cc2ccccc2F)c([N+](=O)[O-])c1)N1CCCC1", "Potency": "inconclusive: 11.2 µM [inhibitor, partial curve, poor fit]"}
{"smiles": "Cc1cc(C(=O)CSc2nc(N)cc(N)n2)c(C)n1-c1cccc(C(F)(F)F)c1", "Potency": "inconclusive: 22.4 µM [inhibitor, partial curve, poor fit]"}
{"smiles": "Cc1ccc(C(=O)CSc2cc(C)nc(SCC(=O)c3ccccc3)n2)cc1", "Potency": "inconclusive: 6.31 µM [inhibitor, partial curve, poor fit]"}
{"smiles": "O=C(CSc1nc2ccccc2o1)N1c2ccccc2Sc2ccc(C(F)(F)F)cc21", "Potency": "inconclusive: 10 µM [inhibitor, partial curve, poor fit]"}
{"smiles": "O=C1NC(=O)/C(=C/c2ccccc2Oc2ccc(Cl)cc2)S1", "Potency": "inconclusive: 12.6 µM [inhibitor, single point]"}
{"smiles": "Cc1cc(OCC(=O)N(Cc2ccc(N(C)C)cc2)C2CCS(=O)(=O)C2)cc(C)c1Cl", "note": "(configuration not stated)", "Potency": "inconclusive: 28.2 µM [inhibitor, single point]"}
{"smiles": "CC(C)c1ccc(NC(=O)CC2Oc3ccccc3NC2=O)cc1", "note": "(configuration not stated)", "Potency": "inconclusive: 10 µM [inhibitor, single point] and inconclusive: 8.91 µM [inhibitor, partial curve, poor fit]"}
{"smiles": "CCCC(=O)C1=C(O)C(C(=O)OC)C(C)(C)CC1=NCc1ccccc1", "note": "(configuration not stated)", "Potency": "inconclusive: 1.78 µM [inhibitor, partial curve, poor fit]"}
{"smiles": "COC(=O)Cn1c(C)c(/C=C/c2cc[n+](C)cc2)c2ccccc21", "Potency": "inactive"}
{"smiles": "O=C(c1sccc1Br)N1CCN(Cc2ccc3c(c2)OCO3)CC1", "Potency": "inconclusive: 10 µM [inhibitor, partial curve]"}
{"smiles": "Cc1ccc(Nc2nc(-c3ccccc3)cs2)nc1", "Potency": "inconclusive: 10 µM [inhibitor, partial curve, poor fit]"}
{"smiles": "CC(=O)Nc1ccc(NC(=O)c2c([N+](=O)[O-])c(C(C)(C)C)nn2C)cc1", "Potency": "inconclusive: 10 µM [inhibitor, partial curve, poor fit]"}
{"smiles": "CC1(c2nnnn2-c2ccc3c(c2)OCCO3)CCC(=O)N1Cc1cccc(C(F)(F)F)c1", "note": "(configuration not stated)", "Potency": "inactive"}
{"smiles": "Cc1ccccc1C(=O)Nc1c(C)nc(Nc2ccccc2)nc1Nc1ccccc1", "Potency": "inconclusive: 12.6 µM [inhibitor, single point]"}
{"smiles": "Cc1cc(C)nc(NC(=O)/C=C/c2ccccc2Cl)c1", "Potency": "inconclusive: 28.2 µM [inhibitor, single point]"}
{"smiles": "CN(C)CCN1C(=O)C2C(C(=O)Nc3cc(Cl)cc(Cl)c3)C3C=CC2(O3)C1C(=O)NC1CCCCC1", "note": "(configuration not stated)", "Potency": "active: 10 µM"}
{"smiles": "c1ccc(Cn2nnc3c(N4CCN(Cc5ccc6c(c5)OCO6)CC4)ncnc32)cc1", "Potency": "inconclusive: 12.6 µM [inhibitor, partial curve, poor fit]"}
{"smiles": "COc1cc2ccc(C(C)=NNC(N)=S)cc2cc1OC", "Potency": "inconclusive: 28.2 µM [inhibitor, single point]"}
{"smiles": "COc1ccc(-c2nc(SCc3cc(=O)c4cc(C)ccc4[nH]3)n[nH]2)cc1", "Potency": "inactive"}
{"smiles": "CS(=O)(=O)c1ncc(Cl)c(C(=O)Nc2ccc(OC(F)F)cc2)n1", "Potency": "inconclusive: 7.08 µM [inhibitor, partial curve, poor fit]"}
{"smiles": "CCc1nc2ccccc2n1Cc1ccccc1OC", "Potency": "inconclusive: 4.47 µM [inhibitor, partial curve, poor fit]"}
{"smiles": "CN=C(c1ccc(C)cc1)n1c(=S)nc(-c2ccc(C)cc2)n(C)c1=S", "Potency": "inconclusive: 28.2 µM [inhibitor, single point]"}
{"smiles": "COc1ccc(S(=O)(=O)N2CCN(C(=O)C3CC3)CC2)cc1", "Potency": "inactive"}
{"smiles": "COc1ccccc1N1CCN(S(=O)(=O)CCNC(=O)COc2ccc(C(C)C)cc2)CC1", "Potency": "inconclusive: 28.2 µM [inhibitor, single point]"}
{"smiles": "COc1ccc(C(C(=O)NCc2ccccc2)N(Cc2ccco2)C(=O)c2snc(C(N)=O)c2N)cc1", "note": "(configuration not stated)", "Potency": "inconclusive: 5.01 µM [inhibitor, partial curve, poor fit]"}
{"smiles": "O=C(NC(=S)Nc1ccccc1N1CCCCC1)c1ccccc1", "Potency": "inconclusive: 7.08 µM [inhibitor, partial curve, poor fit]"}
{"smiles": "COc1cccc(OCc2cc(C(=O)N3CCN(C4CCCCC4)C(=O)C3)no2)c1", "Potency": "inconclusive: 28.2 µM [inhibitor, single point]"}
{"smiles": "CN1C(C(=O)c2ccccc2)=C(N)c2ccccc2S1(=O)=O", "Potency": "inactive"}
{"smiles": "COc1ccc(OC)c(-c2csc(N(CC3CCCO3)C(=O)C3CCCCC3)n2)c1", "note": "(configuration not stated)", "Potency": "inconclusive: 28.2 µM [inhibitor, single point]"}
{"smiles": "O=C(c1ccc(COc2ccccc2Br)o1)N1N=C(C(F)F)CC1(O)C(F)F", "note": "(configuration not stated)", "Potency": "inconclusive: 12.6 µM [inhibitor, partial curve]"}
{"smiles": "COc1ccccc1NS(=O)(=O)c1cc(NC(=O)c2cccnc2)ccc1N1CCCCC1", "Potency": "inconclusive: 14.1 µM [inhibitor, partial curve, poor fit]"}
{"smiles": "COc1ccc(-c2nsc(NC(=O)C(C)Oc3ccc(Cl)c(C)c3)n2)cc1", "note": "(configuration not stated)", "Potency": "inconclusive: 20 µM [inhibitor, single point]"}
{"smiles": "CCCn1c(C(O)c2ccc(OCC)cc2)nc2ccccc21", "note": "(configuration not stated)", "Potency": "inconclusive: 15.8 µM [inhibitor, partial curve, poor fit]"}
{"smiles": "COc1cccc(NC(=O)N2CCc3nc(Nc4cc(Cl)cc(Cl)c4)ncc3C2)c1", "Potency": "inconclusive: 25.1 µM [inhibitor, single point]"}
{"smiles": "O=C(Cc1ccc(F)cc1)NCCc1ccccc1", "Potency": "inactive"}
{"smiles": "COc1ccc(OC)c(CCNC(=O)c2cnn(-c3ccccc3Cl)c2C2CCN(C(=O)OC(C)(C)C)CC2)c1", "Potency": "inconclusive: 3.98 µM [inhibitor, partial curve, poor fit]"}
{"smiles": "Cc1cccc(C(=O)Nc2c(C(=O)NCc3ccc(Cl)cc3)sc3nc(C)cc(C)c23)c1", "Potency": "inactive"}
{"smiles": "COc1ccc(OCC(=O)Nc2ccc(C(=O)Nc3ccccc3C(=O)O)cc2)cc1", "Potency": "inactive"}
{"smiles": "O=c1[nH]c2ccc(Cl)cc2c(-c2ccccc2)c1N1CCN(CCO)CC1", "Potency": "inconclusive: 17.8 µM [inhibitor, partial curve, poor fit]"}
{"smiles": "COc1ccc(N2C(=O)C(Cl)=C(Oc3cccc(OC)c3)C2=O)cc1", "Potency": "inconclusive: 28.2 µM [inhibitor, single point]"}
{"smiles": "C/C(CC(=O)Nc1ccc(Cl)c(Cl)c1)=N\\NC(=O)C(=O)N1CCCCC1", "Potency": "inconclusive: 11.2 µM [inhibitor, single point]"}
{"smiles": "COc1ccc(/C=C/c2nc(C#N)c(NCCc3ccccc3)o2)cc1OC", "Potency": "inactive"}
{"smiles": "Cc1ccc(NC(=O)CC2S/C(=N/c3nccs3)N(C)C2=O)cc1C", "note": "(configuration not stated)", "Potency": "inconclusive: 28.2 µM [inhibitor, single point]"}
{"smiles": "COc1ccc(NC(=O)c2c(C)oc3ccc(O)c(CN4CCCCCC4)c23)cc1Cl", "Potency": "inconclusive: 28.2 µM [inhibitor, single point]"}
{"smiles": "O=C(c1ccc2c(c1)OCCO2)N1CCN(c2ncc(C(F)(F)F)cc2Cl)CC1", "Potency": "inconclusive: 28.2 µM [inhibitor, single point]"}
{"smiles": "CCCOc1cccc(C2C(C(=O)c3ccc(C)o3)=C(O)C(=O)N2c2nc(C)c(C(C)=O)s2)c1", "note": "(configuration not stated)", "Potency": "inactive"}
{"smiles": "CCc1nc(N2CCCCC2C(=O)O)c2oc3ccccc3c2n1", "note": "(configuration not stated)", "Potency": "inactive"}
